# The list shows a part of the results.
# B1: Neuropilin-1 (Rattus norvegicus), Q9QWJ9 (protein)
# chain: MERGLPLLCATLALALALAGAFRSDKCGGTIKIENPGYLTSPGYPHSYHPSEKCEWLIQAPEPYQRIMINFNPHFDLEDRDCKYDYVEVIDGENEGGRLWGKFCGKIAPSPVVSSGPFLFIKFVSDYETHGAGFSIRYEIFKRGPECSQNYTAPTGVIKSPGFPEKYPNSLECTYIIFAPKMSEIILEFESFDLEQDSNPPGGVFCRYDRLEIWDGFPEVGPHIGRYCGQKTPGRIRSSSGILSMVFYTDSAIAKEGFSANYSVLQSSISEDFKCMEALGMESGEIHSDQITASSQYGTNWSVERSRLNYPENGWTPGEDSYREWIQVDLGLLRFVTAVGTQGAISKETKKKYYVKTYRVDISSNGEDWITLKEGNKAIIFQGNTNPTDVVFGVFPKPLITRFVRIKPASWETGISMRFEVYGCKITDYPCSGMLGMVSGLISDSQITASNQGDRNWMPENIRLVTSRTGWALPPSPHPYINEWLQVDLGDEKIVRGVIIQGGKHRENKVFMRKFKIAYSNNGSDWKMIMDDSKRKAKSFEGNNNYDTPELRAFTPLSTRFIRIYPERATHSGLGLRMELLGCEVEVPTAGPTTPNGNPVDECDDDQANCHSGTGDDFQLTGGTTVLATEKPTIIDSTIQSEFPTYGFNCEFGWGSHKTFCHWEHDSHAQLRWRVLTSKTGPIQDHTGDGNFIYSQADENQKGKVARLVSPVVYSQSSAHCMTFWYHMSGSHVGTLRVKLHYQKPEEYDQLVWMVVGHQGDHWKEGRVLLHKSLKLYQVIFEGEIGKGNLGGIAVDDISINNHIPQEDCAKPTDLDKKNTEIKIDETGSTPGYEEGKGDKNISRKPGNVLKTLDPILITIIAMSALGVLLGAVCGVVLYCACWHNGMSERNLSALENYNFELVDGVKLKKDKLNPQSNYSEA
# Experiments:
# Assay in all cases: glycan array binding signal (z-score within array); higher = stronger binding
# Settings in all cases: glycan notation: IUPAC condensed, linker removed
# [1] = target: GlcNAc(b1-4)GlcNAc(b1-4)GlcNAc
# Outline: (§1)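 Glycan array binding is given as a within-array Z-score, which can be read as non-binding when negative. The arrays, 3228 of them, came from the Consortium for Functional Glycomics database and were retained only where the protein sequence was available. Z-scores were averaged across arrays of the same protein sequence at different concentrations or buffers and across linkers.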
# [2] = target: GlcNAc(b1-4)GlcNAc(b1-4)GlcNAc(b1-4)GlcNAc(b1-4)GlcNAc
# Outline: as §1
# [3] = target: GlcNAc(b1-4)GlcNAc(b1-4)GlcNAc(b1-4)GlcNAc(b1-4)GlcNAc(b1-4)GlcNAc
# Outline: as §1
# [4] = target: GlcNAc(b1-4)[GlcNAc(b1-6)]GalNAc
# Outline: as §1
# [5] = target: GlcNAc(b1-6)Gal(b1-4)GlcNAc
# Outline: as §1
# GlcNAc(b1-6)GalNAc = target: GlcNAc(b1-6)GalNAc
# Outline: as §1
# GlcNAc3Prop(b1-4)GlcNAc = target: GlcNAc3Prop(b1-4)GlcNAc
# Outline: as §1
# [6] = target: GlcNAc6S(b1-3)Gal(b1-4)GlcNAc
# Outline: as §1
# Kdn(a2-3)Gal(b1-3)GalNAc = target: Kdn(a2-3)Gal(b1-3)GalNAc
# Outline: as §1
# Kdn(a2-3)Gal(b1-3)GlcNAc = target: Kdn(a2-3)Gal(b1-3)GlcNAc
# Outline: as §1
# Kdn(a2-3)Gal(b1-4)Glc = target: Kdn(a2-3)Gal(b1-4)Glc
# Outline: as §1
# Kdn(a2-3)Gal(b1-4)GlcNAc = target: Kdn(a2-3)Gal(b1-4)GlcNAc
# Outline: as §1
# [7] = target: Kdn(a2-3)Gal(b1-4)[Fuc(a1-3)]GlcNAc
# Outline: as §1
# Kdn(a2-6)Gal(b1-4)GlcNAc = target: Kdn(a2-6)Gal(b1-4)GlcNAc
# Outline: as §1
# [8] = target: Man(a1-2)Man(a1-2)Man(a1-3)Man
# Outline: as §1
# [9] = target: Man(a1-2)Man(a1-2)Man(a1-6)[Man(a1-3)]Man
# Outline: as §1
# Man(a1-2)Man(a1-3)Man = target: Man(a1-2)Man(a1-3)Man
# Outline: as §1
# [10] = target: Man(a1-2)Man(a1-3)[Man(a1-2)Man(a1-6)]Man
# Outline: as §1
# [11] = target: Man(a1-2)Man(a1-3)[Man(a1-2)Man(a1-6)]Man(a1-6)[Man(a1-2)Man(a1-2)Man(a1-3)]Man
# Outline: as §1
# [12] = target: Man(a1-2)Man(a1-3)[Man(a1-2)Man(a1-6)]Man(a1-6)[Man(a1-2)Man(a1-2)Man(a1-3)]Man(b1-4)GlcNAc(b1-4)GlcNAc
# Outline: as §1
# [13] = target: Man(a1-2)Man(a1-3)[Man(a1-6)]Man(a1-6)[Man(a1-2)Man(a1-3)]Man(b1-4)GlcNAc(b1-4)GlcNAc
# Outline: as §1
# [14] = target: Man(a1-2)Man(a1-6)[Man(a1-3)]Man(a1-6)[Man(a1-2)Man(a1-2)Man(a1-3)]Man
# Outline: as §1
# [15] = target: Man(a1-2)Man(a1-6)[Man(a1-3)]Man(a1-6)[Man(a1-2)Man(a1-2)Man(a1-3)]Man(b1-4)GlcNAc(b1-4)GlcNAc
# Outline: as §1
# Man(a1-3)[Man(a1-6)]Man = target: Man(a1-3)[Man(a1-6)]Man
# Outline: as §1
# [16] = target: Man(a1-3)[Man(a1-6)]Man(a1-6)[Man(a1-2)Man(a1-3)]Man(b1-4)GlcNAc(b1-4)GlcNAc
# Outline: as §1
# [17] = target: Man(a1-3)[Man(a1-6)]Man(a1-6)[Man(a1-3)]Man
# Outline: as §1
# [18] = target: Man(a1-3)[Man(a1-6)]Man(a1-6)[Man(a1-3)]Man(b1-4)GlcNAc(b1-4)GlcNAc
# Outline: as §1
# [19] = target: Man(a1-3)[Man(a1-6)]Man(b1-4)GlcNAc(b1-4)GlcNAc
# Outline: as §1
# Man(a1-6)Man = target: Man(a1-6)Man
# Outline: as §1
# Man(b1-4)GlcNAc = target: Man(b1-4)GlcNAc
# Outline: as §1
binder,measurement,setting,value
B1,glycan array binding signal (z-score),[1],-0.307
same,glycan array binding signal (z-score),[2],-0.36
same,glycan array binding signal (z-score),[3],-0.306
same,glycan array binding signal (z-score),[4],-0.203
same,glycan array binding signal (z-score),[5],-0.321
same,glycan array binding signal (z-score),GlcNAc(b1-6)GalNAc,-0.324
same,glycan array binding signal (z-score),GlcNAc3Prop(b1-4)GlcNAc,-0.299
same,glycan array binding signal (z-score),[6],-0.32
same,glycan array binding signal (z-score),Kdn(a2-3)Gal(b1-3)GalNAc,-0.237
same,glycan array binding signal (z-score),Kdn(a2-3)Gal(b1-3)GlcNAc,-0.243
same,glycan array binding signal (z-score),Kdn(a2-3)Gal(b1-4)Glc,-0.151
same,glycan array binding signal (z-score),Kdn(a2-3)Gal(b1-4)GlcNAc,-0.231
same,glycan array binding signal (z-score),[7],1.12
same,glycan array binding signal (z-score),Kdn(a2-6)Gal(b1-4)GlcNAc,-0.209
same,glycan array binding signal (z-score),[8],-0.155
same,glycan array binding signal (z-score),[9],-0.237
same,glycan array binding signal (z-score),Man(a1-2)Man(a1-3)Man,-0.171
same,glycan array binding signal (z-score),[10],-0.239
same,glycan array binding signal (z-score),[11],-0.339
same,glycan array binding signal (z-score),[12],-0.203
same,glycan array binding signal (z-score),[13],-0.217
same,glycan array binding signal (z-score),[14],-0.303
same,glycan array binding signal (z-score),[15],-0.184
same,glycan array binding signal (z-score),Man(a1-3)[Man(a1-6)]Man,-0.363
same,glycan array binding signal (z-score),[16],-0.319
same,glycan array binding signal (z-score),[17],-0.335
same,glycan array binding signal (z-score),[18],-0.25
same,glycan array binding signal (z-score),[19],-0.24
same,glycan array binding signal (z-score),Man(a1-6)Man,-0.238
same,glycan array binding signal (z-score),Man(b1-4)GlcNAc,-0.304

# Reference: the supplement of paper PMC8728848
